Source: PubChem BioAssay AID1508623 (National Center for Advancing Translational Sciences (NCATS), 2021)
About 450 (0.94%) of roughly 48,000 compounds were called active. Inconclusive results (about 19%) are left out. The call rests on the fitted dose curve; in most records, active means well fitted inhibition curve with a large enough effect; inconclusive means small, poorly fitted or top-dose-only effect; inactive means no such curve, though single readings can be large or run the other way. Some of the results follow.

Test: Primary qHTS for Identification of Small Molecule Inhibitors of Huntingtin Promoter Activity; further: nearly all actives have a fitted effect of over 50% in size
Details: HEK293 HTT promoter firefly luciferase reporter (activity 0% = vehicle and -100% = no light), 24 h; series mostly up to 57.5 µM; activity change, negative = inhibition: at the top concentration
Method in brief: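 HEK293 Fluc reporter, 2,500 cells/well, 24 h pre-culture; cpds up to 57.5 uM final, 24 h 37 degrees C; Dual-Glo, 10 min RT; normalized vehicle = 0%, zero RLU = -100%.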
Potency means the concentration at half of the fitted maximal effect.

Structure (SMILES) | activity change, negative = inhibition | Potency
Cc1ccccc1N(C)S(=O)(=O)c1nnc(NC(=O)C(C)C)s1 | inactive: -10.1% | –
COc1ccccc1N1CCN(CCCCNC(=O)c2ccc(-c3ccc(C(C)=O)cc3)cc2)CC1 | inactive: -2.1% | –
Cc1ccccc1NC(=O)Cn1c(=O)n(Cc2ccccc2)c(=O)c2sc3ccccc3c21 | inactive: -11% | –
CCOc1ccc(C(=O)NCC(c2ccco2)S(=O)(=O)c2cccs2)cc1 (stereo not given) | inactive: -6.93% | –
Cc1ccccc1-c1nn2c(=O)cc(CN3CCN(S(=O)(=O)c4ccc(Cl)cc4)CC3)nc2s1 | inactive: 0.962% | –
COC(=O)c1ccc(C(=O)OC)c(NC(=O)c2cnn3c(C(F)F)cc(-c4ccccc4)nc23)c1 | inactive: -2.58% | –
CCC1CN(C(=O)Nc2ccc(Br)cc2F)c2ccccc2S1 (stereo not given) | inactive: 0.357% | –
O=C(NCC(c1ccc(Cl)cc1)N1CCCCC1)c1ccccc1F (stereo not given) | inactive: -15.6% | –
COc1ccccc1N1CCN(C(=O)CSc2n[nH]c(-c3ccccc3Cl)n2)CC1 | inactive: -2.32% | –
CCOc1ccc(OCC)c(NC(=O)CCc2nc3cccnc3n2-c2ccccc2)c1 | inactive: -19.5% | –
COC(=O)C(NC(=O)CCc1c(C)nc2c(c(C)nn2-c2ccccc2)c1C)C(C)C (stereo not given) | inactive: 4.89% | –
Cc1ccccc1NC(=O)[C@H](CSCc1ccccc1)N1Cc2ccccc2C1=O | inactive: -8.9% | –
C#CCn1c(C2CC(=O)N(c3ccc(OCC)cc3)C2)nc2ccccc21 (stereo not given) | inactive: 12.3% | –
CCN(CC)C(=O)C1CCN(c2nnc(C)c3c(C)n(-c4ccc(Cl)cc4)nc23)CC1 | inactive: -10.9% | –
O=C(NCc1ccc(F)cc1)c1cnc(N2CCCCC2)c2ccccc12 | inactive: -21.7% | –
NC(=O)Nc1cc(-c2ccc(CN3CCOCC3)cc2)sc1C(N)=O | inactive: 24.1% | –
CCCOc1ccc(CNC(=O)C2CCCN(c3nc4c(C)cc(C)cc4s3)C2)cc1 (stereo not given) | inactive: 18.4% | –
COc1ccc(NC(=O)Cn2c(=O)n(CCCC(=O)NCCc3ccc(C)cc3)c(=O)c3ccccc32)cc1Cl | inactive: -3.77% | –
Cc1ccc(CCNC(=O)c2ccc3c(c2)N(Cc2ccccc2)C(=O)c2ccccc2S3=O)cc1 (stereo not given) | inactive: -10.5% | –
Cc1cccc(NC(=O)c2ccc(F)c(S(=O)(=O)N3CCC4(CC3)OCCO4)c2)c1 | inactive: -37% | –

Structure (SMILES) | activity change, negative = inhibition | Potency
COc1cc(OC)c(NC(=O)N2CCc3cc(OC)c(OC)cc3C2CC(=O)O)cc1Cl (stereo not given) | inactive: -14.1% | –
CC(C)Cn1c(=O)c2ccccc2n2c(CCC(=O)N3CCN(c4ccccc4)CC3)nnc12 | inactive: 3.6% | –
Cc1ccc2onc(CNC(=O)Nc3cc(F)ccc3F)c2c1 | inactive: -18.1% | –
Cc1ccc2c(c1)Cc1c(nc(-c3ccc(Cl)cc3)nc1SCC(=O)N1CCCCC1)O2 | inactive: -2.51% | –
Cc1ccc(Cl)cc1NC(c1ccc(F)cc1)c1nnc(-c2ccccc2)o1 (stereo not given) | inactive: -32.7% | –
NS(=O)(=O)c1cc2c(cc1C(F)(F)F)NCNS2(=O)=O | inactive: 5.28% | –
CC(C)NC[C@@H](O)COc1ccc(CC(N)=O)cc1 | inactive: 0.667% | –
COc1ccc(Nc2cc(C)nc3c(C)c(C)ccc23)cc1 | inactive: -16.3% | –
O=C(CSc1nnc(-c2ccc(Cl)cc2)o1)Nc1ccc(F)cc1 | inactive: 67.3% | –
CC(=O)N1CCc2c(sc3c2c(=O)n(CCc2ccccc2)c(=O)n3CC(=O)Nc2ccc(C)c(F)c2)C1 | inactive: -23.4% | –
COc1cccc2c1Oc1ncccc1N(c1ccc(C(=O)NCc3ccccc3Cl)s1)C2 | inactive: -24.6% | –
CCOC(=O)c1c(NC(=O)c2ccc(OCC)c(Br)c2)sc2c1CCCC2 | inactive: -19.2% [at 11.5 µM] | –
Cc1cc2oc(=O)c(CC(=O)NCCc3ccccc3F)c(C)c2c2occ(C(C)(C)C)c12 | inactive: 4.02% | –
COc1c(N2C[C@@H]3CCCN[C@H]3C2)c(F)cc2c(=O)c(C(=O)O)cn(C3CC3)c12 | inactive: 1.3% | –
O=c1c2cc3c(cc2nc2sc(Nc4cccc([N+](=O)[O-])c4)nn12)OCO3 | inactive: 0.255% | –
Cc1ccc(C)c(S(=O)(=O)c2nnn3c2nc(N2CCN(C)CC2)c2sccc23)c1 | inactive: -9.55% | –
COc1ccc(CC(=O)NCC(c2cccs2)S(=O)(=O)c2ccc(F)c(C)c2)cc1 (stereo not given) | inactive: -7.46% | –
Cc1cccc(CN2CCC(CNC(=O)Cn3ncc4c([nH]c5ccc(C)cc54)c3=O)CC2)c1 | inactive: 3.07% | –
CCOC(=O)c1cc(S(=O)(=O)NCc2ccc(Cl)cc2)[nH]n1 | inactive: -17.8% | –
Cc1ccccc1CSc1ncc(Cl)c(C(=O)Nc2nc3ccc(F)cc3s2)n1 | inactive: -12.6% | –

Structure (SMILES) | activity change, negative = inhibition | Potency
COc1ccccc1C(=O)N/C(=C\c1cn(S(=O)(=O)N(C)C)c2ccccc12)C(=O)NCCCn1ccnc1 | inactive: 4.51% | –
Cc1cc2n(n1)CCC(=O)N2Cc1ccc(C(=O)Nc2cc(Cl)ccc2C)cc1 | inactive: -27.2% | –
COc1ccccc1NC(=O)C1=C(C)Nc2nc(SC)nn2C1c1ccccc1Cl (stereo not given) | inactive: 25.3% | –
CCCN(CCC)C(=O)Cn1c(=O)n(-c2cccc(C)c2)c(=O)c2c1c1cc(OC)ccc1n2C | inactive: -17.8% | –
CSc1ccc(-c2nnn(CC(=O)Nc3sc4c(c3C#N)CCC(C(C)(C)C)C4)n2)cc1 (stereo not given) | inactive: 7.5% | –
CCCCOc1ccc(C(C)NC(=O)CN2C(=O)CSc3ccc(S(=O)(=O)N4CCOCC4)cc32)cc1 (stereo not given) | inactive: -24.4% | –
COc1cccc(-c2cc(C(F)(F)F)nc(NCCc3ccc(OC)c(OC)c3)n2)c1 | inactive: -26.8% | –
COc1ccc(-c2[nH]nc3nc(-c4cc(Br)ccc4OC)cc(C(=O)O)c23)cc1 | inactive: -10.2% | –
Cc1c(C(=O)OC2CCCCC2)[nH]c2c1C(=O)CC(c1ccc(F)cc1)C2 (stereo not given) | inactive: -22.8% | –
CC(C)CC(=O)NCC(c1ccc2c(c1)OCO2)N1CCN(c2ccccc2)CC1 (stereo not given) | inactive: -7.39% | –
COc1ccccc1CN1CCC(CNC(=O)c2cnn(-c3ccccc3Cl)c2C2CCN(C(=O)OC(C)(C)C)CC2)CC1 | inactive: -22.1% | –
CCC(=O)Nc1ccc(Cl)c(-c2nc3ccccc3[nH]2)c1 | inactive: 11.5% | –
Cc1cccc(NC(=O)c2ccc(-n3c(C)nnc3C)cc2)c1 | inactive: 4.37% | –
Cc1ccc(-n2ncc3c(N4CCCCCC4)ncnc32)cc1Cl | – | active: 0.355 µM
COc1ccccc1CNC(=O)CCc1c(C)nc2cc(-c3ccc(Cl)cc3)nn2c1C | – | active: 3.98 µM
O=S(=O)(c1ccc(F)cc1)N1CCC(Oc2cccc(C(F)(F)F)c2)CC1 | inactive: -11.5% | –
COc1c(Cl)cc(Cl)cc1C(=O)Nc1cccc(-c2nc3ccccc3o2)c1C | inactive: -12.9% | –
CCn1c(COc2ccc(Cl)cc2Cl)nc2ccccc21 | inactive: 41.7% | –
CCc1ccccc1NC(=O)c1cn(C)c(=O)c2ccccc12 | inactive: -10.9% | –
COc1ccc(S(=O)(=O)N2Cc3ccccc3CC2C(=O)Nc2ccc(C)cc2)cc1OC (stereo not given) | inactive: -23% | –
